# In the supplement of paper PMC3334620:
# Whole data set: some 33,000 sequences, median “E-score (-0.5 to 0.5)” near -0.012, cut for the highest 2% near 0.27. The list shows a part of the results.
# Target: T1, Vhr1 (UniProt P40522)
# T1 sequence: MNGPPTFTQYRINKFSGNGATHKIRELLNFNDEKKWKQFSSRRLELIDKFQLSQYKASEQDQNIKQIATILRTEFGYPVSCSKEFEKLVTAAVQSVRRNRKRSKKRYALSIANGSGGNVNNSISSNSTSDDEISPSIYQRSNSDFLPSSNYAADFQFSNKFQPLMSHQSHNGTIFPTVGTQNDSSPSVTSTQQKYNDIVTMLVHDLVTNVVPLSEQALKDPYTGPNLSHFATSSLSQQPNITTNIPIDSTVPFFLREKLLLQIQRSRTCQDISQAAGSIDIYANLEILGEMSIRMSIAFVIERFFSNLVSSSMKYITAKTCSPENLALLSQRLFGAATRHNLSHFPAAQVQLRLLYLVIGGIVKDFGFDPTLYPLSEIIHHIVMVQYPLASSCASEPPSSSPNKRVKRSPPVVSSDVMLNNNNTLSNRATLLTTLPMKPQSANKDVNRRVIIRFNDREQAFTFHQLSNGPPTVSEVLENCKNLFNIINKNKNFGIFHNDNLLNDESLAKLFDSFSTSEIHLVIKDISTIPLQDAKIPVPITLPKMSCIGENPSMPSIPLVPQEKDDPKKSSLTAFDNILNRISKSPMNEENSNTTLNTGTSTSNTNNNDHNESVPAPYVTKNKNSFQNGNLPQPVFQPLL
# Experiment: PBM E-score (8-mer binding enrichment) (E-score (-0.5 to 0.5)); higher = stronger / more preferred TF binding; most listed sequences are background and not binding sites
# Settings: protein concentration: 200 nM; construct: GST-full length
# How it was run: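 Detection of bound protein used fluorescent anti-GST, with scans normalised by masliner. The proteins were GST-tagged yeast transcription factors applied at about 100-200 nM to universal all-10-mer Agilent arrays made double-stranded by primer extension. Each ungapped eight-base word, pooled with its reverse complement, was scored with an E-score from the Universal PBM Analysis Suite.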
row,Sequence,PBM E-score
1,CAGCGGCG,0.177
2,TACTTAAA,-0.393
3,CGCAGGAA,0.0761
4,CTCCATCA,0.2
5,GGTGGCAC,-0.0593
6,CTCCTGTC,-0.0765
7,ATAAGGAG,0.0344
8,GCCGTTAC,0.0559
9,CAACAAGG,0.227
10,CTGTGCAC,-0.0754
11,AAAAATGA,-0.0948
12,AATGGGCA,-0.103
13,CGAAACCG,-0.01
14,CAACTATC,0.125
15,GCCACAGA,-0.18
16,GCAACACC,0.0734
17,ACGCGCCA,-0.0442
18,AGTCAAGC,0.00212
19,CAAAGGAC,-0.204
20,ATTTTTAA,0.0376
21,CGATGGTA,-0.00809
22,TCGCGAGA,0.0565
23,AGCTACGG,-0.0657
24,CCACCCAA,0.0748
25,AATAACGG,0.0495

row,Sequence,PBM E-score
1,GACGATGC,-0.131
2,CGCGCATC,0.00543
3,ATCTGGGA,-0.222
4,CAAGGGCG,-0.203
5,CTCCTTCC,-0.165
6,ACGCAGAT,-0.00634
7,ATGAATAA,0.0199
8,GACGGACC,0.0359
9,AGGGAACT,-0.127
10,GCTATGGA,-0.033
11,AGCTAACT,-0.114
12,ACAGTATC,-0.14
13,CAAGATTC,0.0678
14,GAATCAGA,0.319
15,AGATAGAC,0.0285
16,ATATATGC,0.152
17,ACGCTTGG,-0.139
18,CTGCTTGA,-0.0612
19,GCGTCGGA,0.0588
20,ATAAAAGA,-0.261
21,GCTCTAAA,-0.343
22,CCTATTCC,-0.199
23,AGATCGGG,-0.0392
24,TCCTGAAA,-0.186
25,AGGTTATC,-0.0965

row,Sequence,PBM E-score
1,CCGTCCAC,-0.0131
2,AGACTGTA,-0.165
3,ATCACGTC,0.0744
4,AATGAAAA,-0.104
5,AATGGTGG,0.11
6,ACTGTCGG,-0.0612
7,CTACGATA,0.155
8,GTGGCGCA,0.0908
9,GGGTGACA,-0.16
10,AGTCGGAA,0.293
11,TCCAGCAA,-0.00891
12,CGGTTTAG,-0.0408
13,AGCAGAAT,-0.0316
14,ACAAAGCC,0.096
15,AGGTTCGA,0.0304
16,AATGATTG,0.199
17,TAAACACA,0.149
18,ATGTCAAC,-0.252
19,AGGATCCG,-0.113
20,ACTGGAGG,0.0908
21,GCTACCAA,-0.143
22,GCCGCGCC,-0.0664
23,AGATAGTG,0.178
24,CCTAGAAG,-0.183
25,CTGAATTC,-0.0862

row,Sequence,PBM E-score
1,ACTCTGGA,0.141
2,AGGCTTCA,-0.189
3,ATGTTCCA,-0.0195
4,ATAGGGAC,-0.0831
5,GCGTTGCA,-0.0568
6,AAAGCCTG,-0.137
7,GCCTCGAA,0.029
8,TAGGCCTA,-0.131
9,ACGGATTA,-0.0457
10,AATGTGAA,0.0216
11,ACTGCGCT,-0.0833
12,TCGTACCA,0.0293
13,CTAAACCA,0.00018
14,ATATCATC,0.152
15,CCACCACG,0.0638
16,GCCAAGCC,-0.0842
17,AACCTCAC,0.122
18,CCAGTCTC,-0.0597
19,TCGCGACA,0.133
20,CCAGGGGA,-0.0142
21,CTTACCGA,-0.0767
22,AAGCATGA,0.156
23,AATGATGA,0.163
24,CTGGGATA,-0.187
25,AGAATTTA,-0.18

row,Sequence,PBM E-score
1,TCGTTTAA,-0.132
2,TCGCAAAA,-0.0543
3,GGCGATAC,-0.0231
4,TCGCTCAA,-0.0505
5,TAAGAACA,0.192
6,ACACAGTG,0.203
7,GTTCTTTA,-0.00789
8,GATCAACC,0.0149
9,GTTCGCTA,-0.08
10,ATTCATGC,0.21
11,ACCCTGAA,0.027
12,AGCAACGA,0.0476
13,GATACGCA,0.0973
14,GGCAAGAA,-0.138
15,GGGGCACA,-0.00095
16,GAGCAGGA,-0.076
17,AGCCACCA,0.242
18,ATATATAG,0.132
19,TCTAATAA,-0.104
20,ACGTATGC,-0.0116
21,ATTGAGGA,-0.0693
22,AAGGGTGG,-0.033
23,ACCTGCTG,0.157
24,AAGGAAGA,-0.203
25,AAACCCGA,0.0237

row,Sequence,PBM E-score
1,AGGCATGC,-0.114
2,CGCGAGAC,0.153
3,CCCATGTA,-0.0412
4,AGGAGTTC,-0.0753
5,AACTTCAG,-0.159
6,AAGTGTAC,-0.12
7,GGTTGAAA,-0.228
8,GTGATTGA,0.329
9,CGCAAACC,0.101
10,CCATATTA,0.143
11,GAGATAGA,-0.262
12,TCCATGGA,0.142
13,GGCCTCTA,-0.3
14,TAGTGTAA,-0.0368
15,TATGCCCA,0.00436
16,AAATGCAC,-0.234
17,ATCAAGTG,0.0742
18,CGGGGGAC,-0.0447
19,CAAAGTAG,-0.0641
20,AATCTCCA,-0.131
21,ACTATAGG,-0.0778
22,ACTTCACC,0.104
23,AGCTTATA,-0.242
24,CCCTGAGC,0.0346
25,CATTGGAA,-0.148

row,Sequence,PBM E-score
1,ACCATCAG,0.0625
2,CTGGCCTC,-0.0348
3,CCTCTAAG,-0.248
4,GGGCGTAA,-0.0807
5,GACTTCTA,-0.12
6,AGGCAGAC,-0.129
7,ACTCGACT,0.185
8,GAGCCCAC,0.0787
9,CCTGAACA,-0.0826
10,ACGGTGGA,-0.00957
11,CCTAAGTC,-0.0413
12,AGTGAAAT,-0.15
13,CGTTCATC,-0.0945
14,ATACGTAC,0.147
15,ATTACAGA,0.0764
16,AAGAAGTG,-0.132
17,CAACGTAA,0.00375
18,ATAATTGC,-0.106
19,CGATAAGA,-0.0316
20,CGTCTGAG,0.024
21,GGTGGCAA,-0.138
22,AGAGTTGG,-0.124
